Assay results from article PMC10080908.

Target: UBXN7-UAS (UAS domain of UBXN7, aa 94-284) (human) (UniProt O94888)
Assay: ITC; VP-ITC; 200 µM RNF111 RING domain injected (20 x 10 µl) into 10 µM UBXN7-WT or UBXN7-UAS, or into 15 µM UBXN7-∆UAS, in the cell; 25 °C; phosphate-buffered saline pH 7.4, 1 mM TCEP; single binding site model

UniProt O94888, sequence (O94888 94-284): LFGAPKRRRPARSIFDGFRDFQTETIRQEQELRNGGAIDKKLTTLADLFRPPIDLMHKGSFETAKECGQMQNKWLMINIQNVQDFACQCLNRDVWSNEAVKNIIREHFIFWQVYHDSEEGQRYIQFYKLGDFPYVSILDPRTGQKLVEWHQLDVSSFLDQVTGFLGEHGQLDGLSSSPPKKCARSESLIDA

Q: Which Kd does the source give for “RNF111 RING domain (RNF111-RING, aa 895 to Cter) (domain or fragment)” here?
A: 769 nM, 901 nM, 869 nM [lines of one column]

Q: What about the stoichiometry N of the same substance?
A: 1.08, 1.19, 1.05 [lines of one column]

Q: What about the Kd (mean of three assays) of the same substance?
A: 846 nM

Q: What about the stoichiometry N (mean of three assays) of the same substance?
A: 1.1

Like-named read-outs stand apart in the source and are kept apart here. For part of its entries the source gives two or more results. The other results are left out here. There may be further records. For some of these results: Values given together appear to be repeats (runs, samples, wells or individuals); a mean can stand among them. Some values that stand alone complete this part of the results.
